Measurements as given in PubChem BioAssay AID1745853 (National Center for Advancing Translational Sciences (NCATS), 2022).
Some of the results follow. The main result of the screen is listed elsewhere. These columns were measured beside it and carry no call.

Assays:
Assay in all cases: Primary Screen for Target Class Profiling of Small Molecule Inhibitors of Methyltransferases
[1] = target: Glycine N-methyltransferase (Homo sapiens) (UniProt Q14749); conditions: purified enzyme, MTase-Glo SAH luminescence; measured here: GNMT inhibition; at 40 µM; stronger effect = lower value
Method in brief: (§1)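 Each enzyme was assayed with SAM and its substrate. SAH formation detected by MTase-Glo luminescence; single-point 40 uM screen[…].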

[2] = target: Histamine N-methyltransferase (Homo sapiens) (UniProt P50135); conditions: purified enzyme, MTase-Glo SAH luminescence; measured here: HNMT inhibition; at 40 µM; stronger effect = lower value
Method in brief: as §1

[3] = target: Guanidinoacetate N-methyltransferase (Homo sapiens) (UniProt Q14353); conditions: purified enzyme, MTase-Glo SAH luminescence; measured here: GAMT inhibition; at 40 µM; stronger effect = lower value
Method in brief: as §1

[4] = target: Nicotinamide N-methyltransferase (Homo sapiens) (UniProt P40261); conditions: purified enzyme, MTase-Glo SAH luminescence; measured here: NNMT inhibition; at 40 µM; stronger effect = lower value
Method in brief: as §1

[5] = target: Phenylethanolamine N-methyltransferase (Homo sapiens) (UniProt P11086); conditions: purified enzyme, MTase-Glo SAH luminescence; measured here: PNMT inhibition; at 40 µM; stronger effect = lower value
Method in brief: as §1
% is set by controls: 0 for no effect and ±100 for the full control effect.

Row | SMILES | activity change, negative = inhibition [1] [%] | activity change, negative = inhibition [2] [%] | activity change, negative = inhibition [3] [%] | activity change, negative = inhibition [4] [%] | activity change, negative = inhibition [5] [%]
1 | C=C(NC(=O)C(=C)NC(=O)c1csc(C2=NC3c4csc(n4)C4NC(=O)c5csc(n5)C(C(C)(O)C(C)O)NC(=O)C5CSC(=N5)/C(=C/C)NC(=O)C(C(C)O)NC(=O)c5csc(n5)C3(CC2)NC(=O)C(C)NC(=O)C(=C)NC(=O)C(C)NC(=O)C(C(C)CC)NC2C=Cc3c(C(C)O)cc(nc3C2O)C(=O)OC4C)n1)C(N)=O (configuration not stated) | -14.3 | 5.46 | – | – | –
2 | COC1/C=C/C(C)(O)C(SCC(N)C(=O)O)CC(=O)OC(C)C(C)CC/C=C/1C (configuration not stated) | -0.736 | 4.28 | -0.871 | -13.4 | 1.2
3 | Cn1c(=O)n(C)c2cc(S(=O)(=O)N3CCN(c4ccccc4)CC3)c(Cl)cc21 | 14 | 11.2 | 2.88 | 4.96 | 9.39
4 | C=CCCC(CN1CCCC1)Oc1ccc(C(=O)NCC)cn1 (configuration not stated) | -4.12 | -4.18 | -11.5 | -17.4 | -18.2
5 | CN1C(=O)c2cc(C(=O)NC3CCCCC3)nn2CC1(C)C(=O)NCc1ccc(F)cc1 (configuration not stated) | 6.06 | 2.63 | 0 | 4.33 | 0.525
6 | Cc1ccccc1CN1CCC(N2CCCC(C(=O)NC3CC3)C2)CC1 (configuration not stated) | -1.44 | -9.26 | -1.18 | -0.243 | -0.658
7 | CC(C)n1c(=O)sc2cc(NS(=O)(=O)c3ccc4c(c3)n(C)c(=O)n4C)ccc21 | -10.7 | 7.83 | 0 | -4.75 | 3.27
8 | CCOc1ccc(C(=O)CSc2nnc3n(C)c(=O)c4ccc(C(=O)NC5CCCCC5)cc4n23)cc1 | 0.548 | 5.62 | 5.08 | 4 | 5.96
9 | O=C1CCCCC(CNC(=O)c2cn[nH]c2-c2ccccc2)N1 (configuration not stated) | -0.191 | 0.92 | 2.29 | -5 | 3.67
10 | CC(C)c1ccc(NC(=O)c2cccs2)c(-c2nc3ccccc3[nH]c2=O)c1 | -2.65 | 6.91 | -7.08 | -29.6 | -8.11
11 | COc1ccc(-c2cc(C(=O)NCCc3ccc(OC)c(OC)c3)c3c(-c4ccc(OC)cc4)[nH]nc3n2)cc1 | 2.81 | 1.67 | 0 | 1.56 | -0.684
12 | Cc1nnc2n1CCC(NC(=O)c1ccoc1)CC2 (configuration not stated) | -2.19 | -0.522 | -0.417 | -7.36 | -1.7
13 | CCCn1c(=O)c2cc(F)ccc2n2c(SCC(=O)Nc3ccc(F)cc3)nnc12 | 1.05 | 7.54 | 4.5 | -1.22 | 0.032
14 | CCCN1C(=O)c2c(C(=O)NCc3ccc(N(C)C)cc3)ncn2CC1(C)C(=O)NCc1ccc(C)cc1 (configuration not stated) | -0.306 | 4.66 | 0.504 | 0.496 | 5.29
15 | CCOc1cc(C)c(Cl)cc1S(=O)(=O)n1cnc2ccccc21 | -5.95 | 10.1 | -10.3 | -19.5 | -1.55
16 | CN1c2ccccc2C(=O)N2CCC3c4ccccc4NC3C21 (configuration not stated) | -5.45 | 9.14 | 2.23 | -14.6 | 2.89
17 | CC1(C(=O)NC2CCCCCC2)Cn2nc(C3CC3)cc2C(=O)N1Cc1cccc(Cl)c1 (configuration not stated) | 2.87 | 6.5 | 0 | -0.998 | 2.13
18 | C=CC(C)(C)C1(CC2NC(=O)C3CCCN3C2=O)C(=O)Nc2cc3c(cc21)C=CC(C)(C)O3 (configuration not stated) | 5.82 | 8.4 | 4.93 | -9.72 | 3.76
